Measured values taken from the supplement of paper PMC4967469.
IC50 is the fitted dose that halves viability relative to control wells, and lower means more sensitive; where the fit passes the top or lowest dose, that dose stands as a limit. For AUC the same curve is integrated over the 256-fold range of doses and scaled to a fraction; values near 1 show little effect. For some assays here: An inferred top dose was derived from the fitted curves, not read from the paper. For some assays here: An entry number marks a drug with two screens in the source, which often give different values.

Tests used:
Assay in all cases: Viability of human cancer cell lines after 72 h of drug (GDSC screen)
NSC-207895 = compound: CN1CCN(c2ccc([N+](=O)[O-])c3no[n+]([O-])c23)CC1 [NSC-207895]; conditions: top dose 20 µM; top dose inferred
Protocol: (§1)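 Human cancer cell lines in 384-well plates, medium with 10% serum, drug for 72 h over a 256-fold dose range (nine 2-fold or five 4-fold steps up to the top dose). Adherent lines were fixed and stained with the nucleic acid dye Syto60, suspension lines read with resazurin; signal relative to control wells, capped at 0 and 100%. One two-parameter sigmoid per drug and line, fitted in a mixed model over all curves with the slope shared within a line.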

YM155 = compound: COCC[n+]1c2c(n(Cc3cnccn3)c1C)C(=O)c1ccccc1C2=O [YM155]; conditions: top dose 5.12 µM
Protocol: as §1

JQ1 = compound: Cc1sc2c(c1C)C(c1ccc(Cl)cc1)=N[C@@H](CC(=O)OC(C)(C)C)c1nnc(C)n1-2 [JQ1]
Protocol: as §1

AMG-706 = compound: CC1(C)CNc2cc(NC(=O)c3cccnc3NCc3ccncc3)ccc21 [AMG-706]; conditions: top dose 2 µM; top dose inferred
Protocol: as §1

Belinostat = compound: O=C(/C=C/c1cccc(S(=O)(=O)Nc2ccccc2)c1)NO [Belinostat]; conditions: top dose 20 µM; top dose inferred
Protocol: as §1

JNJ-26854165 = compound: c1ccc2c(CCNc3ccc(Nc4ccncc4)cc3)c[nH]c2c1 [JNJ-26854165]; conditions: top dose 10 µM
Protocol: as §1

JNK Inhibitor VIII = compound: CCOc1nc(NC(=O)Cc2cc(OC)ccc2OC)cc(N)c1C#N [JNK Inhibitor VIII]; conditions: top dose 10 µM; top dose inferred
Protocol: as §1

Docetaxel = compound: CC(=O)O[C@@]12CO[C@@H]1C[C@H](O)[C@@]1(C)C(=O)[C@H](O)C3=C(C)[C@@H](OC(=O)[C@H](O)[C@@H](NC(=O)OC(C)(C)C)c4ccccc4)C[C@@](O)([C@@H](OC(=O)c4ccccc4)[C@H]21)C3(C)C [Docetaxel]; conditions: top dose 0.0125 µM
Protocol: as §1

Cyclopamine = compound: CC1=C2C[C@H]3[C@@H](CC=C4C[C@@H](O)CC[C@@]43C)[C@@H]2CC[C@]12O[C@@H]1C[C@H](C)CN[C@H]1[C@H]2C [Cyclopamine]; conditions: top dose 16 µM; top dose inferred
Protocol: as §1

FTI-277 = compound: COC(=O)[C@H](CCSC)NC(=O)c1ccc(NC[C@@H](N)CS)cc1-c1ccccc1 [FTI-277]; conditions: top dose 1.024 µM; top dose inferred
Protocol: as §1

OSI-906 = compound: C[C@]1(O)C[C@@H](c2nc(-c3ccc4ccc(-c5ccccc5)nc4c3)c3c(N)nccn32)C1 [OSI-906]; conditions: top dose 2.56 µM; top dose inferred
Protocol: as §1

SB-715992 = compound: Cc1ccc(C(=O)N(CCCN)[C@@H](c2nc3cc(Cl)ccc3c(=O)n2Cc2ccccc2)C(C)C)cc1 [SB-715992]; conditions: top dose 0.128 µM; top dose inferred
Protocol: as §1

CGP-60474 = compound: OCCCNc1cc(-c2ccnc(Nc3cccc(Cl)c3)n2)ccn1 [CGP-60474]; conditions: top dose 0.256 µM; top dose inferred
Protocol: as §1

[1] = top dose 1 µM, screen: GDSC drug entry 1218, top dose inferred
[2] = top dose 2.56 µM, screen: GDSC drug entry 163

Row | Cell Line | AUC (NSC-207895) | IC50 (NSC-207895) [nM] | AUC (YM155) | IC50 (YM155) [nM] | AUC (JQ1; [1]) | IC50 (JQ1; [1]) [nM] | AUC (JQ1; [2]) | IC50 (JQ1; [2]) [nM] | AUC (AMG-706) | IC50 (AMG-706) [nM] | AUC (Belinostat) | IC50 (Belinostat) [nM] | AUC (JNJ-26854165) | IC50 (JNJ-26854165) [nM] | AUC (JNK Inhibitor VIII) | IC50 (JNK Inhibitor VIII) [nM] | AUC (Docetaxel) | IC50 (Docetaxel) [nM] | AUC (Cyclopamine) | IC50 (Cyclopamine) [nM] | AUC (FTI-277) | IC50 (FTI-277) [nM] | AUC (OSI-906) | IC50 (OSI-906) [nM] | AUC (SB-715992) | IC50 (SB-715992) [nM] | AUC (CGP-60474) | IC50 (CGP-60474) [nM]
1 | NB12 (neuroblastoma, adherent) | 0.824 | 17800 | 0.091 | < 20 | 0.961 | > 1000 | 0.687 | 643 | 0.979 | > 2000 | 0.136 | < 78.1 | 0.94 | > 10000 | 0.98 | > 10000 | 0.879 | > 12.5 | 0.952 | > 16000 | 0.972 | > 1020 | 0.975 | > 2560 | 0.886 | > 128 | – | –
2 | NCI-H128 (small cell lung carcinoma, suspension) | – | – | – | – | – | – | – | – | – | – | – | – | – | – | – | – | – | – | 0.969 | > 16000 | – | – | – | – | – | – | 0.875 | > 256
3 | NCI-H2171 (small cell lung carcinoma, suspension) | 0.808 | 8730 | 0.019 | < 20 | – | – | 0.96 | > 2560 | – | – | 0.336 | 468 | – | – | – | – | – | – | 0.991 | > 16000 | 0.988 | > 1020 | 0.858 | 1670 | 0.584 | 13.2 | 0.9 | 252
4 | NCI-H2196 (small cell lung carcinoma, adherent) | 0.817 | 11900 | 0.077 | < 20 | – | – | 0.967 | > 2560 | – | – | 0.321 | 384 | – | – | – | – | – | – | 0.986 | > 16000 | 0.984 | > 1020 | 0.984 | > 2560 | 0.89 | > 128 | 0.894 | > 256
5 | NCI-H2227 (small cell lung carcinoma, semi-adherent) | 0.749 | 7260 | 0.036 | < 20 | 0.973 | > 1000 | 0.969 | > 2560 | 0.986 | > 2000 | 0.137 | < 78.1 | 0.986 | > 10000 | 0.985 | > 10000 | 0.852 | 11.7 | 0.983 | > 16000 | 0.976 | > 1020 | 0.983 | > 2560 | 0.724 | 38 | – | –
6 | RC-K8 (B-cell lymphoma, suspension) | 0.942 | > 20000 | 0.301 | 96.5 | 0.969 | > 1000 | 0.935 | > 2560 | 0.992 | > 2000 | 0.577 | 1970 | 0.981 | > 10000 | 0.99 | > 10000 | 0.991 | > 12.5 | 0.992 | > 16000 | 0.993 | > 1020 | 0.993 | > 2560 | 0.993 | > 128 | – | –
7 | SIG-M5 (acute myeloid leukaemia, suspension) | 0.795 | 6800 | 0.019 | < 20 | – | – | 0.263 | 41.7 | – | – | 0.11 | 119 | – | – | – | – | – | – | 0.99 | > 16000 | 0.984 | > 1020 | – | – | – | – | 0.61 | –
8 | SK-MEL-2 (melanoma, adherent) | 0.984 | > 20000 | 0.288 | 78.5 | 0.984 | > 1000 | 0.873 | > 2560 | 0.965 | > 2000 | 0.626 | 2830 | 0.864 | – | 0.928 | > 10000 | 0.697 | 2.87 | – | – | 0.986 | > 1020 | 0.85 | 2070 | 0.906 | > 128 | 0.897 | > 256
9 | SU-DHL-1 (anaplastic large cell lymphoma, suspension) | 0.939 | 17600 | 0.009 | < 20 | – | – | 0.997 | > 2560 | – | – | 0.518 | 1380 | – | – | – | – | – | – | 0.993 | > 16000 | 0.997 | > 1020 | 0.997 | > 2560 | 0.994 | > 128 | 0.791 | 82
10 | TALL-1 (T-cell lymphoblastic leukaemia, suspension) | 0.986 | > 20000 | 0.056 | < 20 | – | – | 0.99 | > 2560 | – | – | 0.391 | 637 | – | – | – | – | – | – | 0.984 | > 16000 | 0.99 | > 1020 | 0.99 | > 2560 | 0.972 | > 128 | 0.772 | –
11 | TK (B-cell lymphoma, suspension) | 0.978 | > 20000 | 0.311 | 99.7 | 0.983 | > 1000 | 0.955 | > 2560 | 0.99 | > 2000 | 0.266 | 289 | 0.908 | > 10000 | 0.99 | > 10000 | 0.932 | > 12.5 | 0.987 | > 16000 | 0.967 | > 1020 | 0.776 | 927 | 0.631 | 17.7 | – | –
12 | UACC-812 (breast, adherent) | 0.918 | > 20000 | 0.047 | < 20 | – | – | 0.991 | > 2560 | – | – | 0.562 | 1830 | – | – | – | – | – | – | 0.991 | > 16000 | 0.99 | > 1020 | 0.991 | > 2560 | 0.989 | > 128 | – | –
